{"source": "the supplement of paper PMC11876631", "proteins": {"B1": {"name": "murD V211Q (protein)", "chain": "MADYQGKNVVIIGLGLTGLSCVDFFLARGVTPRVMDTRMTPPGLDKLPEAVERHTGSLNDEWLMAADLIVASPGIALAHPSLSAAADAGIEIVGDIELFCREAQAPIVAITGSNGKSTVTTLVGEMAKAAGVNVGVGGNIGLPALMLLDDECELYVLELSSFQLETTSSLQAVAATILNVTEDHMDRYPFGLQQYRAAKLRIYENAKVCVQNADDALTMPIRGADERCVSFGVNMGDYHLNHQQGETWLRVKGEKVLNVKEMKLSGQHNYTNALAALALADAAGLPRASSLKALTTFTGLPHRFEVVLEHNGVRWINDSKATNVGSTEAALNGLHVDGTLHLLLGGDGKSADFSPLARYLNGDNVRLYCFGRDGAQLAALRPEVAEQTETMEQAMRLLAPRVQPGDMVLLSPACASLDQFKNFEQRGNEFARLAKELG"}, "B2": {"name": "murD V108P (protein)", "chain": "B1 chain with V108P, Q211V"}, "B3": {"name": "murD L178A (protein)", "chain": "B1 chain with L178A, Q211V"}, "B4": {"name": "murD V211P (protein)", "chain": "B1 chain with Q211P"}, "B5": {"name": "murD V108Q (protein)", "chain": "B1 chain with V108Q, Q211V"}, "B6": {"name": "murD V108D (protein)", "chain": "B1 chain with V108D, Q211V"}, "B7": {"name": "murD V108A (protein)", "chain": "B1 chain with V108A, Q211V"}, "B8": {"name": "murD V108W (protein)", "chain": "B1 chain with V108W, Q211V"}, "B9": {"name": "murC M188Q (protein)", "chain": "MNTQQLAKLRSIVPEMRRVRHIHFVGIGGAGMGGIAEVLANEGYQISGSDLAPNPVTQQLMNLGATIYFNHRPENVRDASVVVVSSAISADNPEIVAAHEARIPVIRRAEMLAELMRFRHGIAIAGTHGKTTTTAMVSSIYAEAGLDPTFVNGGLVKAAGVHARLGHGRYLIAEADESDASFLHLQPQVAIVTNIEADHMDTYQGDFENLKQTFINFLHNLPFYGRAVMCVDDPVIRELLPRVGRQTTTYGFSEDADVRVEDYQQIGPQGHFTLLRQDKEPMRVTLNAPGRHNALNAAAAVAVATEEGIDDEAILRALESFQGTGRRFDFLGEFPLEPVNGKSGTAMLVDDYGHHPTEVDATIKAARAGWPDKNLVMLFQPHRFTRTRDLYDDFANVLTQVDTLLMLEVYPAGEAPIPGADSRSLCRTIRGRGKIDPILVPDPARVAEMLAPVLTGNDLILVQGAGNIGKIARSLAEIKLKPQTPEEEQHD"}, "B10": {"name": "murC V192A (protein)", "chain": "B9 chain with Q188M, V192A"}, "B11": {"name": "murC M188D (protein)", "chain": "B9 chain with Q188D"}}, "note": "Changes are numbered by the printed parent chain. Numbers in names are those of the source. ± gives the standard deviation of the averaged measurements. Laboratory Escherichia coli strains with one amino-acid change in an essential protein, pooled on minimal glucose agar with carbenicillin or gentamicin at twice the control MIC (plus kanamycin and chloramphenicol for the plasmids), 48 h. Fold change of barcode share against drug-free plates; higher = less susceptible. Active = above 20 in both replicates (the paper's putatively resistant). '<' = one read or none on drug, '>' = one read or none on a drug-free plate. Shares are relative, so most strains fall below 1 when a few take over. Listed are strains with at least 15 reads on both drug-free plates, and hits; most hits rest on fewer reference reads. Replicate rank correlation about 0.5. Edits are read from barcodes."}
{"target": "Escherichia coli (laboratory strain)", "test": "barcode share on antibiotic plates over drug-free plates; higher = less susceptible", "conditions": "antibiotic: carbenicillin; 2× MIC (3.1 µg/mL)", "procedure": "(§1)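 A pool of E. coli strains, each edited to carry one amino-acid change in an essential protein, was grown for 48 h on minimal glucose agar with or without antibiotic; strain barcodes were sequenced; mean of two replicates.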"}
{"protein": "B1", "fold change of barcode share": "0.233 ± 0.065"}
{"protein": "B2", "fold change of barcode share": "0.426 ± 0.35"}
{"protein": "B3", "fold change of barcode share": "0.199 ± 0.0036"}
{"protein": "B4", "fold change of barcode share": "0.457 ± 0.027"}
{"protein": "B5", "fold change of barcode share": "0.36 ± 0.23"}
{"protein": "B6", "fold change of barcode share": "0.366 ± 0.22"}
{"protein": "B7", "fold change of barcode share": "0.361 ± 0.15"}
{"protein": "B8", "fold change of barcode share": "0.79 ± 0.2"}
{"protein": "B9", "fold change of barcode share": "0.177 ± 0.086"}
{"protein": "B10", "fold change of barcode share": "0.0959 ± 0.0026"}
{"protein": "B11", "fold change of barcode share": "0.307 ± 0.012"}
{"target": "Escherichia coli (laboratory strain)", "test": "barcode share on antibiotic plates over drug-free plates; higher = less susceptible", "conditions": "antibiotic: gentamicin; 2× MIC (MIC 0.45 µg/mL)", "procedure": "as §1"}
{"protein": "B1", "fold change of barcode share": "< 0.0085"}
{"protein": "B2", "fold change of barcode share": "< 0.00974"}
{"protein": "B3", "fold change of barcode share": "< 0.00662"}
{"protein": "B4", "fold change of barcode share": "< 0.00965"}
{"protein": "B5", "fold change of barcode share": "< 0.00807"}
{"protein": "B6", "fold change of barcode share": "< 0.00965"}
{"protein": "B7", "fold change of barcode share": "< 0.00657"}
{"protein": "B8", "fold change of barcode share": "< 0.00688"}
{"protein": "B9", "fold change of barcode share": "< 0.00271"}
{"protein": "B11", "fold change of barcode share": "0.00722 ± 0.0024"}
